# Laboratory results reported in paper PMC4336329 (PLoS ONE, 2015).
# Hit rate of the full screen: of about 310,000 compounds, about 2,200 (0.71%) showed an effect of 50% or more. The effect is printed as a negative number. This is one part of the list.
# Target: human ether-à-go-go-related gene (hERG) potassium channel (human, UniProt Q12809)
# Assay: primary screen, population patch clamp on CHO cells stably expressing hERG
# human ether-à-go-go-related gene (hERG) potassium channel, sequence (Q12809 whole entry, looked up): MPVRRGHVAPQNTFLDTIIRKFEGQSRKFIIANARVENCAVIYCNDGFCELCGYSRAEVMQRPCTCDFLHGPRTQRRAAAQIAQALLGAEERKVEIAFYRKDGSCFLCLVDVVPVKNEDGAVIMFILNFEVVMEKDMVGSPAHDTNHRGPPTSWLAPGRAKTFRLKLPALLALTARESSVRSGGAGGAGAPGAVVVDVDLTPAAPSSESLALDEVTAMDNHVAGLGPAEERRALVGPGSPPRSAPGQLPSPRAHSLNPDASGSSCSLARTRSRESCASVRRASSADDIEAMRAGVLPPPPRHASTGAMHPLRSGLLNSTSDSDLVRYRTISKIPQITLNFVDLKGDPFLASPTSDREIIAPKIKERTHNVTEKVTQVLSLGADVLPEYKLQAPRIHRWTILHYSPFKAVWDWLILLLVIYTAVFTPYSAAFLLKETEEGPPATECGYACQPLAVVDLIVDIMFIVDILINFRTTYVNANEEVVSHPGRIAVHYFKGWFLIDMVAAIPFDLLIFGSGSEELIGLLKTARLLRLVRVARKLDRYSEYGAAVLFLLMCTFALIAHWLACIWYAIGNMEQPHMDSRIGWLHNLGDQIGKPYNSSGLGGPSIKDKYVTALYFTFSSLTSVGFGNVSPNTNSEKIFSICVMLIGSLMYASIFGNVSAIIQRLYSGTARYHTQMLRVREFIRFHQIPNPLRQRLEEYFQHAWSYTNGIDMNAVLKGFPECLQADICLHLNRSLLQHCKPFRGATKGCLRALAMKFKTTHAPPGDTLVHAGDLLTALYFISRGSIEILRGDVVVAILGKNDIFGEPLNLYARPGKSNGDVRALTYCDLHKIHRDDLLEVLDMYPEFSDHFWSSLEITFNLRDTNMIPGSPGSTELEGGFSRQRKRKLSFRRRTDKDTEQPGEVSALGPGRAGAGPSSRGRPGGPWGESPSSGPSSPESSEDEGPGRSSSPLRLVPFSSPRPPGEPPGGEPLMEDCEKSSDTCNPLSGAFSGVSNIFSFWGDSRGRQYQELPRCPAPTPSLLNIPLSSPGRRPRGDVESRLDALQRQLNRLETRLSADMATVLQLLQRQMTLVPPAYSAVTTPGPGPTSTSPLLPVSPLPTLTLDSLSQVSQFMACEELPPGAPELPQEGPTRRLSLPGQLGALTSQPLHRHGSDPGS
row,Structure (SMILES),"hERG current change (%, negative = inhibition) at 1uM"
1,CC(=O)N1c2ccc(S(=O)(=O)N(C)CC(=O)NCc3ccc(C)cc3)cc2CC1C (centres unmarked),13%
2,O=C(CSc1nnnn1-c1ccc(F)cc1)NNC(=O)c1ccco1,0.5%
3,COc1ccc(F)cc1S(=O)(=O)N1CCC2(CC1)OCCN2S(=O)(=O)c1cccs1,-1.29%
4,C/C(=N\Nc1ccc(F)cc1F)c1ccc(N2CCOCC2)cc1,10.8%
5,OCC[C@@H]1C[C@H](O)[C@@H](O)[C@]2(CCc3ccccc3CO2)O1,12.7%
6,CC(/C=C/c1ccco1)=N/NC(=O)OC(C)(C)C,11.6%
7,CCc1nnc(NC(=O)CCC(=O)N2CCN(S(=O)(=O)c3cc(Cl)ccc3OC)CC2)s1,5.75%
8,Cl.NC1=NC2(CCCCC2)N(c2ccc(F)cc2)C(N)=N1,2.96%
9,COc1cc(/C(C)=N/N2CCN(Cc3ccc(C)cc3)CC2)ccc1O,-3.97%
10,COc1ccc(NC(=O)c2cc(NC(=O)C3CCCCC3C(=O)O)ccc2N2CCOCC2)cc1 (centres unmarked),-2.19%
11,Cc1cccc(OCCSCc2nc3ccccc3[nH]2)c1,12.1%
12,COc1ccccc1NC(=O)CCn1c(=O)c2cccn2c2ccccc21,12.4%
13,FC(F)(F)c1nc(NCC2CCCO2)c2nnn(Cc3ccccc3Cl)c2n1 (centres unmarked),10.6%
14,Cc1ccc(C(=O)NC(=S)Nc2cccc3c(C)cc(C)nc23)cc1,12.1%
15,Cc1cc(C)nc(SCc2nnc(SCC(=O)Nc3c(C)cccc3C)o2)n1,5.52%
16,O=C(CSc1ccc(-c2cccnc2)nn1)N1CCCCCC1,19.9%
17,CC(C)N(C(=O)CSc1nc2ccccc2n1Cc1ccc(F)cc1)C(C)C,3.06%
18,O=C(O)COCC(=O)N1CCCN(c2ccc(C(F)(F)F)cn2)CC1,8.76%
19,O=C(CNC(=O)c1ccco1)Nc1ccc(F)c(Cl)c1,15.7%
20,CCN1C(=O)c2cccc3c(S(=O)(=O)Nc4ccccc4O)ccc1c23,14.7%
21,CS(=O)(=O)c1ccc(C(=O)Nc2ccc(-c3nc4ccccc4[nH]3)cc2)cc1,4.62%
22,CC12CCC(C(=O)NNc3ccc([N+](=O)[O-])cc3)(OC1=O)C2(C)C (centres unmarked),8.53%

row,Structure (SMILES),"hERG current change (%, negative = inhibition) at 1uM"
1,Cc1cccc(NC(=O)CCc2c(C)nn(-c3ccc(N4CCCCC4)nn3)c2C)c1,6.16%
2,Cc1ccccc1CNC(=O)CCn1nc(C)c2c(C)n(-c3ccccc3)nc2c1=O,2.24%
3,Cc1[nH]n(-c2nc(-c3ccc(Cl)cc3)cs2)c(=O)c1N=Nc1ccc(O)cc1,15.9%
4,Cc1ccc2nc3c(c(C(=O)OC4CCOC4=O)c2c1)CCCC3 (centres unmarked),7.73%
5,COCCc1nnc(NC(=O)C(C)C)s1,9.63%
6,O=C(Nc1nc2ccccc2s1)Nc1ccc([N+](=O)[O-])cc1Cl,19.7%
7,CCC(C)NS(=O)(=O)c1ccc(S(=O)(=O)Nc2cc3c(cc2C(C)=O)OCO3)cc1 (centres unmarked),11.3%
8,CCOC(=O)C(CC)(CC)C(=O)/C=C/c1ccc(OC)cc1,4.41%
9,COc1ccc(NC(=O)c2cccc(NC(=O)c3ccccc3)c2)c(OC)c1,11.5%
10,COc1ccccc1CNC(=O)C(c1ccccc1)c1ccccc1,15.9%
11,OC(CNCCc1ccc(C(F)(F)F)cc1)COc1ccc2ccccc2c1 (centres unmarked),-9.24%
12,Cc1ccc(Cl)cc1NC(=S)N(CCCN1CCOCC1)Cc1ccccn1,-0.469%
13,CN(C)S(=O)(=O)c1cccc(NC(=S)NCCCn2ccnc2)c1,12.2%
14,CC(C)=CC(=O)OCC(=O)Nc1cc(C)ccc1C,4.51%
15,CC(=O)Oc1c(C)c(C)c2c(c1C)CCC(C)(CCCC(C)CCCC(C)CCCC(C)C)O2 (centres unmarked),4.27%
16,CC(C)NC(=O)NC(=O)COC(=O)c1ccccc1Oc1ccccc1,6.23%
17,O=C1Cc2ccccc2Sc2ccc(O)cc21,14.2%
18,COc1ccc(NS(=O)(=O)c2cc(NC(=O)c3nn(C)c(=O)c4ccccc34)ccc2OC)cc1,4.74%
19,CCCCCc1cc(=O)oc2c(C(CCN3CCCC(C)C3)c3ccc(N(C)C)cc3)c(OC)cc(OC)c12 (centres unmarked),11.4%
20,CC(=O)C1=C(C)N(Cc2ccccc2)C(=O)N[C@H]1c1ccco1,12.2%
21,O=C(OCC(=O)N1CCc2ccccc2C1)c1cccnc1Cl,12.2%
22,Cc1ccc(C(C(=O)NC2CCCC2)N(Cc2ccc3c(c2)OCO3)C(=O)Cc2cccs2)cc1 (centres unmarked),4.88%
